According to the supplement of paper PMC3334620:
In all, about 33,000 sequences were measured (“E-score (-0.5 to 0.5)”: median about -0.036, highest 2% from about 0.37 on). The list shows a part of the results.

These sequences were tested against T1, Yer064c (UniProt P40041) (assay: PBM E-score (8-mer binding enrichment) (E-score (-0.5 to 0.5)); higher = stronger / more preferred TF binding; most listed sequences are background and not binding sites). Settings: protein concentration: 200 nM; construct: GST-full length.
T1 sequence: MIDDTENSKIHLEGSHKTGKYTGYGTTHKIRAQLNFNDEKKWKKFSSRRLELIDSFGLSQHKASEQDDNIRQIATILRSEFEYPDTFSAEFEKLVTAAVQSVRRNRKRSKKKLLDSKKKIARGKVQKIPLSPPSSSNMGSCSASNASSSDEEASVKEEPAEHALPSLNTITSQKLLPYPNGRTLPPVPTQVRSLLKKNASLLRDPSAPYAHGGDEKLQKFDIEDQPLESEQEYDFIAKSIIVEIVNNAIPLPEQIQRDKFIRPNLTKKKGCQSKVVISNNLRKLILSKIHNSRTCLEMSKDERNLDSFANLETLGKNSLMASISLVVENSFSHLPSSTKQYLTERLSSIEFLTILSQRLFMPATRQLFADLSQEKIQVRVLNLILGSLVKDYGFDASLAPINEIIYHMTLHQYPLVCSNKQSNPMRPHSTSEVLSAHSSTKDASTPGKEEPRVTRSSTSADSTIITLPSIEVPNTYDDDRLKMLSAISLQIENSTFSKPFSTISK
Method in brief: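 Each ungapped eight-base word and its reverse complement, pooled, received an E-score from the Universal PBM Analysis Suite. Underlying scans, normalised with masliner, recorded fluorescent anti-GST bound to GST-tagged yeast transcription factors. These were applied at about 100-200 nM to universal all-10-mer Agilent arrays double-stranded by primer extension.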
In the case of GCCGGAGC, the “PBM E-score” value is reported as -0.353.
CCACTATA was tested, and the “PBM E-score” value was -0.0974.
GTTTCCGA was tested, and the “PBM E-score” value was -0.192.
CGCTGGCA was tested, and the “PBM E-score” value was -0.0908.
For CAGCATCG, the “PBM E-score” value was -0.169.
AGGGATTC was tested, and the “PBM E-score” value was -0.0892.
For CCATATGC, the “PBM E-score” value was -0.092.
In the case of CCCCATAA, the “PBM E-score” value is reported as -0.106.
With CCTATTAG the “PBM E-score” value was -0.0631.
In the case of CATCCCGC, the “PBM E-score” value is reported as -0.0306.
With ACTCGCCG the “PBM E-score” value was 0.233.
With GTACACCA the “PBM E-score” value was -0.097.
CAGACTCA was tested, and the “PBM E-score” value was 0.396.
For AGCCGCGA, the “PBM E-score” value was 0.0437.
For ATACGAGG, the “PBM E-score” value was -0.182.
For CGTCGCGC, the “PBM E-score” value was 0.172.
In the case of GGACGATA, the “PBM E-score” value is reported as -0.256.
In the case of AAACTAGT, the “PBM E-score” value is reported as 0.15.
In the case of GATTCCGA, the “PBM E-score” value is reported as 0.276.
AAAGATTA was tested, and the “PBM E-score” value was 0.217.
With CGCTCTTC the “PBM E-score” value was -0.207.
In the case of ATGAGCGC, the “PBM E-score” value is reported as -0.00997.
For GGACAGAA, the “PBM E-score” value was 0.0356.
In the case of CCTAACAG, the “PBM E-score” value is reported as -0.103.
TCGCCTAA was tested, and the “PBM E-score” value was 0.152.
With GCTTATTA the “PBM E-score” value was -0.00641.
For CATGGCTA, the “PBM E-score” value was 0.328.
For ACGTTATG, the “PBM E-score” value was -0.131.
For AGCTCATC, the “PBM E-score” value was -0.0269.
For AACTCGAA, the “PBM E-score” value was -0.0714.
With GACGGGCA the “PBM E-score” value was -0.129.
In the case of CGCAGTAC, the “PBM E-score” value is reported as 0.0149.
CTTGCTGC was tested, and the “PBM E-score” value was -0.0734.
With CGTTCAAC the “PBM E-score” value was -0.125.
With GATGCAAC the “PBM E-score” value was -0.183.
For TTAAGGAA, the “PBM E-score” value was 0.0206.
In the case of CTAGATCA, the “PBM E-score” value is reported as 0.0507.
ACCGTGAG was tested, and the “PBM E-score” value was 0.0838.
AGGAAAGG was tested, and the “PBM E-score” value was -0.0962.
In the case of ACACGAAG, the “PBM E-score” value is reported as 0.0761.
With AAATGTTC the “PBM E-score” value was -0.0329.
AACCCATG was tested, and the “PBM E-score” value was 0.0857.
CTTTGAGA was tested, and the “PBM E-score” value was 0.179.
In the case of ATTCCGCA, the “PBM E-score” value is reported as -0.0624.
CGTTACGC was tested, and the “PBM E-score” value was -0.148.
For CAACATTC, the “PBM E-score” value was -0.199.
For TGCCACAA, the “PBM E-score” value was -0.0447.
For CCCCCTTC, the “PBM E-score” value was -0.378.
CTAAAAGC was tested, and the “PBM E-score” value was -0.0902.
In the case of CCCGAACG, the “PBM E-score” value is reported as -0.124.
In the case of CAAAATGG, the “PBM E-score” value is reported as -0.209.
With AGCGCTTC the “PBM E-score” value was -0.175.
CACTTGGG was tested, and the “PBM E-score” value was 0.0152.
ACCCGGGT was tested, and the “PBM E-score” value was -0.195.
With TAACGGAA the “PBM E-score” value was 0.167.
In the case of ACGGGACC, the “PBM E-score” value is reported as -0.212.
With CTCGAGGA the “PBM E-score” value was 0.127.
In the case of AAGAGCAT, the “PBM E-score” value is reported as -0.131.
ACATGGTG was tested, and the “PBM E-score” value was -0.0217.
For AGTATCAG, the “PBM E-score” value was -0.069.
With ATGGCAAG the “PBM E-score” value was -0.18.
With CTGATCCC the “PBM E-score” value was -0.176.
With CTACATAG the “PBM E-score” value was 0.0419.
For CCCCTCGG, the “PBM E-score” value was -0.247.
With AAGCTCAC the “PBM E-score” value was -0.135.
With AGATGGCT the “PBM E-score” value was 0.241.
For GCTTGCGA, the “PBM E-score” value was 0.15.
For ATTCATTG, the “PBM E-score” value was 0.214.
ACCACGAC was tested, and the “PBM E-score” value was 0.169.
For GCCAATAC, the “PBM E-score” value was -0.222.
With AGCTGCCC the “PBM E-score” value was -0.0693.
For AGCGTAGA, the “PBM E-score” value was 0.0147.
With AATCAGGA the “PBM E-score” value was 0.263.
For ATAAGTGA, the “PBM E-score” value was 0.139.
ACAACGGA was tested, and the “PBM E-score” value was -0.12.
In the case of ATCACATG, the “PBM E-score” value is reported as 0.203.
With GACCCGCC the “PBM E-score” value was -0.099.
For AATTGAAT, the “PBM E-score” value was 0.117.
CCACCACC was tested, and the “PBM E-score” value was -0.142.
In the case of ATCCGCGG, the “PBM E-score” value is reported as -0.152.
In the case of CGTGCACG, the “PBM E-score” value is reported as 0.0709.
With CTACCACC the “PBM E-score” value was -0.242.
GTGACCCA was tested, and the “PBM E-score” value was 0.204.
In the case of ATAATAGA, the “PBM E-score” value is reported as 0.0622.
In the case of GATGTTTA, the “PBM E-score” value is reported as 0.0744.
With CGACCACC the “PBM E-score” value was -0.22.
For ATACACGA, the “PBM E-score” value was 0.0335.
AAGGTCCT was tested, and the “PBM E-score” value was -0.177.
AGACAGGC was tested, and the “PBM E-score” value was -0.0638.
For AATCGAGT, the “PBM E-score” value was 0.244.
CATACATA was tested, and the “PBM E-score” value was 0.0996.
CGATACCC was tested, and the “PBM E-score” value was -0.164.
In the case of AATAACGA, the “PBM E-score” value is reported as 0.0921.
With AGTGTTCG the “PBM E-score” value was -0.0632.
With TCATAACA the “PBM E-score” value was 0.225.
For CCTTACGA, the “PBM E-score” value was -0.0457.
In the case of ATCTCTAA, the “PBM E-score” value is reported as 0.0574.
With AGAACCCG the “PBM E-score” value was -0.0558.
For TAAAATTA, the “PBM E-score” value was 0.0539.
With ATTTATCC the “PBM E-score” value was 0.0618.
With CACATAGA the “PBM E-score” value was 0.0848.
CACTCTCA was tested, and the “PBM E-score” value was -0.0477.
GAAATTAA was tested, and the “PBM E-score” value was 0.182.
GGCGTGGA was tested, and the “PBM E-score” value was -0.179.
For ACAGATCA, the “PBM E-score” value was -0.0913.
For CTCCGTTC, the “PBM E-score” value was -0.0878.
For GCATCAGC, the “PBM E-score” value was -0.173.
For TAGCATCA, the “PBM E-score” value was -0.0227.
For TCCCAAAA, the “PBM E-score” value was 0.0626.
In the case of AATCTAGC, the “PBM E-score” value is reported as -0.132.
With CACAGACC the “PBM E-score” value was 0.173.
For CAAGCAGG, the “PBM E-score” value was -0.138.
For AATCTGAA, the “PBM E-score” value was 0.17.
For ACGGCCAA, the “PBM E-score” value was -0.179.
With AGCAACTC the “PBM E-score” value was -0.277.
In the case of CGTCTCGC, the “PBM E-score” value is reported as -0.19.
For ATCAGACC, the “PBM E-score” value was 0.0458.
With GGAAGTCC the “PBM E-score” value was 0.0559.
For GATGTAGC, the “PBM E-score” value was -0.221.
In the case of AATGAGCT, the “PBM E-score” value is reported as -0.0581.
With ATCGCAAC the “PBM E-score” value was -0.0402.
For AATATGCA, the “PBM E-score” value was 0.0901.
ACCTCTTA was tested, and the “PBM E-score” value was 0.00063.
AAAGGCTC was tested, and the “PBM E-score” value was -0.123.
With TCTCACAA the “PBM E-score” value was 0.166.
For CTGATTCA, the “PBM E-score” value was 0.45.
GACTATCA was tested, and the “PBM E-score” value was 0.394.
With CGTCGATA the “PBM E-score” value was -0.16.
With ATCAAAAC the “PBM E-score” value was 0.103.
With CAGTTGGA the “PBM E-score” value was -0.0163.
With GAAGAGTC the “PBM E-score” value was 0.426.
CCCTGATA was tested, and the “PBM E-score” value was -0.166.
In the case of ACGGATGG, the “PBM E-score” value is reported as 0.0552.
In the case of ATGTTAAA, the “PBM E-score” value is reported as 0.0628.
CATTGCCC was tested, and the “PBM E-score” value was -0.139.
In the case of AGTAATCC, the “PBM E-score” value is reported as 0.0831.
In the case of AGGGCGAG, the “PBM E-score” value is reported as -0.0576.
GCCTCATA was tested, and the “PBM E-score” value was -0.152.
In the case of ACGAGGGC, the “PBM E-score” value is reported as -0.252.
ACTGGTCG was tested, and the “PBM E-score” value was -0.0181.
For GACAGCAA, the “PBM E-score” value was -0.152.
With CGGTAAAG the “PBM E-score” value was -0.0796.
With GATCGCAC the “PBM E-score” value was -0.0638.
With ACTCAAGC the “PBM E-score” value was 0.259.
For ACGATCTA, the “PBM E-score” value was -0.0776.
CTGGACCC was tested, and the “PBM E-score” value was -0.199.
AGCGATTC was tested, and the “PBM E-score” value was 0.247.
AGAGGCCC was tested, and the “PBM E-score” value was -0.147.
ATTTTATC was tested, and the “PBM E-score” value was -0.11.
In the case of GAGGTTAA, the “PBM E-score” value is reported as 0.12.
In the case of GCCAACCC, the “PBM E-score” value is reported as -0.343.
With AAATACGA the “PBM E-score” value was -0.0358.
For ACGCTACC, the “PBM E-score” value was -0.186.
For ACTCCTTG, the “PBM E-score” value was 0.197.
In the case of AGTGAACG, the “PBM E-score” value is reported as -0.108.
CCATAGTA was tested, and the “PBM E-score” value was 0.0975.
CTGCTACC was tested, and the “PBM E-score” value was -0.0659.
ATTCTCGA was tested, and the “PBM E-score” value was 0.162.
For GCTTAGTA, the “PBM E-score” value was 0.0649.
CAATTACC was tested, and the “PBM E-score” value was -0.166.
For ATCGTGAC, the “PBM E-score” value was 0.212.
With CTTCGGTC the “PBM E-score” value was 0.0776.
In the case of ATCTAAAT, the “PBM E-score” value is reported as 0.214.
For CTTTCGCA, the “PBM E-score” value was -0.0641.
For AACTAAAC, the “PBM E-score” value was -0.0459.
With CGCCGGAG the “PBM E-score” value was -0.202.
CAGGAGGC was tested, and the “PBM E-score” value was 0.0039.
GCCATCGA was tested, and the “PBM E-score” value was -0.0186.
CGGCAAAA was tested, and the “PBM E-score” value was -0.235.
CACGAGGC was tested, and the “PBM E-score” value was 0.0104.
For ACGAGGCA, the “PBM E-score” value was -0.21.
For CAAGGTAG, the “PBM E-score” value was -0.118.
